Results reported in PubChem BioAssay AID1476 (National Center for Advancing Translational Sciences (NCATS), 2009).
Among all 200,000 compounds or so, about 4,500 (2.2%) were called active. The shares of active, inactive and inconclusive entries below differ from those in the screen. Calls follow the shape of the dose curve; as a rule, active = well fitted inhibition curve with a large enough effect; inconclusive = small, poorly fitted or top-dose-only effect, or effect the other way; inactive = flat fitted curve, though single readings scatter. A potency beside an inconclusive call is a rough fit, not a confirmed value.

target: Cruzipain (Trypanosoma cruzi) (UniProt P25779); assay: qHTS Assay for Promiscuous and Specific Inhibitors of Cruzain (without detergent); settings: purified cruzain, Z-FR-AMC fluorescence, no detergent; also: nearly all actives have a fitted effect of over 40% in size;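 as to max response, negative = inhibition: plate controls were enzyme without inhibitor for no effect and buffer without enzyme for full effect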
Sequence of UniProt P25779 (P25779 whole entry, looked up): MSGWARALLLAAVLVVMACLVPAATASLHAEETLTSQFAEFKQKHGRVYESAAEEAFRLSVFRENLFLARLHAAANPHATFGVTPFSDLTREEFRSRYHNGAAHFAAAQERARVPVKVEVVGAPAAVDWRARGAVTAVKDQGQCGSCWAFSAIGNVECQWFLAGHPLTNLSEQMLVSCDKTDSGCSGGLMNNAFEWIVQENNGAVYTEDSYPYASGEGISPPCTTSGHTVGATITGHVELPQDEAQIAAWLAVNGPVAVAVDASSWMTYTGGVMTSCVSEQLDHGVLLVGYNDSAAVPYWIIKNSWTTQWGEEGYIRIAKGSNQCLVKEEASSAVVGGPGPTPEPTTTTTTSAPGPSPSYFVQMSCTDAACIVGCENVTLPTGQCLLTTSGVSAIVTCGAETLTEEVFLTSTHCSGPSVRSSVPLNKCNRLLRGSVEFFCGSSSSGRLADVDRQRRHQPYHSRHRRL
Summary of the method: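 Purified cruzain at 1.5 nM, pre-incubated 15 min with compound at room temperature in 100 mM sodium acetate pH 5.5, 5 mM DTT, 0.00005% Triton X-100. Reaction started with 2 uM Z-FR-AMC; AMC fluorescence increase over 60 s gives rate.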
Potency is read from the fitted curve at half-maximal effect; tags tell the direction and shape of the fitted curve.

Row | Structure (SMILES) | Potency | max response, negative = inhibition
1 | CCc1ccc(S(=O)(=O)c2cn(CC(=O)Nc3ccc(C)cc3)c3ccccc3c2=O)cc1 | inconclusive: 5.01 µM [inhibitor, partial curve, poor fit] | –
2 | Cc1cc(C)c2c(N)c(C(=O)c3ccc(Cl)cc3)sc2n1 | inconclusive: 39.8 µM [inhibitor, single point] | –
3 | COC(=O)c1scc(-c2ccc(C)cc2)c1S(=O)(=O)Nc1cc(Cl)ccc1C | inconclusive: 20 µM [inhibitor, partial curve, poor fit] | –
4 | Cc1nn(Cc2ccc(F)cc2)c(C)c1NC(=O)c1cc(CC(C)C)on1 | – | inactive: 2.49%
5 | O=C(CCN1C(=O)C2C3C=CC(C3)C2C1=O)N1CCN(c2cccc(Cl)c2)CC1 (stereo unspecified) | inconclusive: 39.8 µM [activator, single point] | –
6 | COc1ccc(-c2noc(CN(C(=O)COc3cc(C)c(Br)c(C)c3)C(C)C)n2)cc1 | – | inactive: 30.1%
7 | COc1cc(/C=C/C(=O)c2ccc(NS(=O)(=O)c3ccc(C)cc3)cc2)ccc1OC(F)F | active: 10 µM | –
8 | CCCn1c(SCc2nc(-c3ccc(OC)cc3OC)no2)nnc1-c1ccc(Cl)cc1 | inconclusive: 39.8 µM [activator, single point] | –
9 | c1csc(C(c2nnnn2C2CCCCC2)N2CCCC3(CCCCC3)C2)c1 (stereo unspecified) | inconclusive: 20 µM [inhibitor, partial curve, poor fit] | –
10 | COc1ccccc1/C=c1\sc2nc(-c3ccco3)nn2c1=O | inconclusive: 31.6 µM [activator, single point] | –
11 | CCOC(=O)Cn1c(CN(Cc2ccccc2)Cc2ccccc2)nc2c1c(=O)[nH]c(=O)n2C | inconclusive: 39.8 µM [activator, single point] | –
12 | Cc1cc(C(=O)CN2C(=O)NC3(CCCc4sccc43)C2=O)c(C)n1-c1ccc(Cl)cc1 (stereo unspecified) | inconclusive: 39.8 µM [inhibitor, single point] | –
13 | CCCC1c2c(ccc3ccccc23)Oc2ccc3ccccc3c21 | inconclusive: 6.31 µM [inhibitor, single point] | –
14 | CCC(C)NC(=O)c1ccccc1NC(=O)c1ccc(CSc2ccc(C)cc2)cc1 (stereo unspecified) | inconclusive: 39.8 µM [inhibitor, single point] | –
15 | COc1ccc(CCNC(=O)CCCn2c(=O)c3ccccc3n(Cc3cccc(Cl)c3)c2=O)cc1OC | inconclusive: 31.6 µM [activator, single point] | –
16 | OC(CNCc1ccco1)Cn1c2ccc(Br)cc2c2cc(Br)ccc21 (stereo unspecified) | inconclusive: 31.6 µM [inhibitor, single point] | –
17 | COc1ccc(C(=O)NC(C)c2nnc(SCC(=O)Nc3nc4ccccc4s3)n2C)cc1 (stereo unspecified) | inconclusive: 39.8 µM [activator, single point] | –
18 | CCOc1ccc(N(C(=O)CC(C)C)S(=O)(=O)c2ccc3c(c2)oc(=O)n3C)cc1 | inconclusive: 39.8 µM [activator, single point] | –
19 | CCNc1ncc2nc(-c3ccc(F)cc3)c(=O)n(-c3ccc(OC)cc3)c2n1 | – | inactive: 1.09%
20 | CCOc1ccc2nc(N3CCCC(C(=O)Nc4c(C)cccc4C)C3)sc2c1 (stereo unspecified) | – | inactive: -3.31%
21 | CCCCC[C@H](O)/C=C/C=C\CCCCCCCCCC(=O)O | – | inactive: -2.79%
22 | COc1ccc(-n2c(SCC(=O)Nc3ccc(Cl)c(C)c3)nc3n[nH]c(C)c3c2=N)cc1 | – | inactive: -5.01%

Row | Structure (SMILES) | Potency | max response, negative = inhibition
23 | O=C(CNC(=O)OCc1ccccc1)NCC(=O)Nc1ccc(Br)cc1C(=O)c1ccccc1 | inconclusive: 31.6 µM [activator, single point] | –
24 | CCOc1ccc(C2c3[nH]c4ccccc4c3CCN2C(=O)CCc2ccccc2)cc1 (stereo unspecified) | – | inactive: 10.2%
25 | CCCCOCCCn1c(-c2ccco2)nc2nc3ccccc3nc21 | inconclusive: 25.1 µM [activator, partial curve] | –
26 | Cc1cccc(OCCn2c(=O)n(C)c3ccccc32)c1 | – | inactive: 19.2%
27 | O=C(NCCc1c[nH]c2ccccc12)c1cc2sccc2n1Cc1ccccc1 | inconclusive: 31.6 µM [inhibitor, single point] | –
28 | COc1ccc(-c2nc3sc(CCNC(=O)c4cc(OC)c(OC)c(OC)c4)c(C)n3n2)cc1 | inconclusive: 25.1 µM [activator, single point] | –
29 | CCn1c2ccccc2c2cc(NC(=O)COC(=O)c3cc(S(=O)(=O)N4CCCCC4)ccc3Cl)ccc21 | active: 6.31 µM | –
30 | O=C(CN1CCN(S(=O)(=O)c2ccc(Cl)cc2)CC1)Nc1ccc2c(c1)OCCO2 | inconclusive: 39.8 µM [activator, single point] | –
31 | COCCn1c(C(=O)N(C)C)cc2c1C[C@H]1CN(C(=O)c3ccccc3)[C@@](Cc3ccc(F)cc3)(C(=O)OC)[C@@H]21 | inconclusive: 10 µM [activator, partial curve] | –
32 | Cc1cccc(C)c1NC(=O)C(NS(=O)(=O)c1ccc2c(c1)CCC(=O)N2)c1ccccc1 (stereo unspecified) | – | inactive: -3.69%
33 | CCCOC(=O)[C@@H]1[C@@H](C(=O)O)[C@H]2CC[C@@H]1O2 | – | inactive: 6.46%
34 | Cc1cccc(N2C(=O)N(Cc3cc(=O)n4ccccc4n3)c3ccccc3S2(=O)=O)c1 | inconclusive: 39.8 µM [activator, single point] | –
35 | O=C(/C=C\Nc1cccc(F)c1)c1ccc2c(c1)OCO2 | active: 25.1 µM | –
36 | C/C(=N\Nc1ccc(Cl)cc1)c1ccccn1 | – | inactive: -0.935%
37 | CCOC(=O)C(Oc1ccc2c(-c3ccc(OC)cc3)cc(=O)oc2c1C)c1ccccc1 (stereo unspecified) | inconclusive: 39.8 µM [inhibitor, single point] | –
38 | CCOc1ccc2nc(N3CCN(C(=O)c4ccc5c(c4)CCCC5)CC3)sc2c1 | – | inactive: -14.8%
39 | COc1ccc(CCNCc2c(C(=O)O)c(C)n(Cc3c(F)cccc3Cl)c2C)cc1OC | – | inactive: -2.54%
40 | Cc1cccc(C(=O)Nc2ccc3oc(-c4cccc5c(Br)cccc45)nc3c2)c1 | inconclusive: 3.16 µM [inhibitor, partial curve] | –
41 | Cc1cc(C)n2c(SCC(=O)Nc3ccccc3)nnc2n1 | – | inactive: 9.73%
42 | CSc1c(CC(=O)Nc2ccccc2C(F)(F)F)n(Cc2ccccc2)c2ccccc12 | inconclusive: 15.8 µM [inhibitor, single point] | –
43 | COC(=O)Cn1c2c(c3cc(C)ccc31)CCCC2 | – | inactive: -4.5%
44 | O=c1cnc2cnc(Oc3ccccc3)nc2n1CCc1ccccc1 | inconclusive: 39.8 µM [activator, single point] | –

Row | Structure (SMILES) | Potency | max response, negative = inhibition
45 | Cc1ccccc1/C=N/NC(=O)c1sccc1C | inconclusive: 25.1 µM [inhibitor, single point] | –
46 | Cc1ccc2[nH]c(=O)c3cc(C(=O)N(C)c4ccc(Br)cc4)sc3c2c1 | – | inactive: 7.42%
47 | CC(N=c1ccccn1C(=O)Nc1ccc(Cl)cc1)c1ccco1 (stereo unspecified) | inconclusive: 39.8 µM [inhibitor, single point] | –
48 | COc1ccc(-n2cccc2/C=C2/NC(=O)N(c3cccc(Cl)c3)C2=O)cc1 | active: 10 µM | –
49 | CCOCCCNC(=O)C(c1ccc(OC)cc1)N(Cc1ccc2c(c1)OCO2)C(=O)c1ccc(NC(C)=O)cc1 (stereo unspecified) | inconclusive: 31.6 µM [activator, single point] | –
50 | COc1ccc(C(CC(=O)O)NC(=O)c2ccccc2)cc1OC (stereo unspecified) | inconclusive: 25.1 µM [activator, single point] | –
51 | COc1ccc(C(=O)Nc2ccccc2N2CCN(C(=O)C(C)C)CC2)cc1Cl | inconclusive: 39.8 µM [activator, single point] | –
52 | COc1cc(C(=O)NC(=S)Nc2ccc(N3CCCC3)cc2)cc(OC)c1OC | inconclusive: 39.8 µM [inhibitor, single point] | –
53 | O=c1c2cccnc2n(Cc2ccccc2F)c(=O)n1Cc1ccc(F)cc1 | – | inactive: 9.21%
54 | C[C@]12CCC(=O)C=C1CC[C@@H]1[C@@H]2[C@@H](O)C[C@@]2(C)[C@H]1CC[C@]2(O)C(=O)CO | inconclusive: 39.8 µM [inhibitor, single point] | –
55 | CCCCN1C(=O)c2[nH]nc(-c3ccccc3O)c2C1c1cc(Br)c(O)c(OC)c1 (stereo unspecified) | inconclusive: 31.6 µM [inhibitor, single point] | –
56 | Cc1ccc(CN2CCSc3ccc(C(=O)N4CCN(c5ccc(Cl)cc5)CC4)cc32)cc1 | inconclusive: 6.31 µM [inhibitor, single point] | –
57 | COc1ccc(C2Nc3ccccc3C(=O)N2c2ccccc2)cc1CSc1ccccn1 (stereo unspecified) | inconclusive: 31.6 µM [inhibitor, single point] | –
58 | CCN(CC)P(=O)(C(NC(=O)OC)C(F)(F)C(F)(F)C(F)(F)C(F)F)N(CC)CC (stereo unspecified) | inconclusive: 25.1 µM [activator, partial curve] | –
59 | Clc1ccc(-c2cn3ncsc3n2)cc1 | – | inactive: 8.15%
60 | Fc1ccc(-n2[nH]nnc2=S)cc1N1CCCC1 | inconclusive: 25.1 µM [inhibitor, partial curve] | –
61 | COc1ccc2c(c1)sc1ncc(C(=O)NCc3ccc(Cl)cc3)c(=O)n12 | – | inactive: -0.611%
62 | CCN1CCN(c2oc(/C=C/c3ccc(OC)c(OC)c3)nc2C#N)CC1 | active: 20 µM | –
63 | CC1CCC(NC(=O)c2ccc3c(c2)N(Cc2ccccc2F)C(=O)c2ccccc2S3=O)CC1 (stereo unspecified) | – | inactive: -25.7%
64 | Cn1cccc1/C=C1\CC(C(C)(C)C)C/C(=C\c2cccn2C)C1=O (stereo unspecified) | inconclusive: 31.6 µM [activator, single point] | –
65 | O=C1NC(c2ccccc2)=N/C1=C/c1ccco1 | – | inactive: -0.436%
66 | O=C(NC1(C(F)(F)F)C(=O)Nc2c1c(=O)[nH]c(=O)n2-c1ccc(F)cc1)c1ccccc1 (stereo unspecified) | – | inactive: 0.19%
